# Laboratory results taken from the supplement of paper PMC9938546.
# Counter-ions that a name gives are not always drawn. The list shows a part of the results. Most values come without repeats; read them as rough.
# Test system: HCT116-GFP
# Test: HCT116-GFP viability (GFP intensity) relative to untreated control, monoculture; higher = less cancer cell killing
# Conditions: culture: HCT116-GFP monoculture; 10 µM; 72 h
# 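Further: viability estimated indirectly by image-based GFP quantification with live-cell imaging of the constitutively GFP-expressing human colorectal cancer line, no immune cells added.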
row,Compound,HCT116-GFP viability
1,Cc1ccc(/C(=C\CN2CCCC2)c2ccccn2)cc1 [Triprolidine hydrochloride],93.2%
2,Cc1c(Cl)cccc1Nc1ncccc1C(=O)O [Clonixin Lysinate],98.3%
3,O=C(N/N=C/c1ccc([N+](=O)[O-])o1)c1ccc(O)cc1 [Nifuroxazide],30.9%
4,CN1CCN(C(c2ccccc2)c2ccc(Cl)cc2)CC1 (stereo not given) [Chlorcyclizine hydrochloride],89.1%
5,CCc1cc(C(N)=S)ccn1 [Ethionamide],108%
6,CC(=O)Nc1c(I)c(NC(C)=O)c(I)c(C(=O)O)c1I [Diatrizoic acid dihydrate],113%
7,CCC(=O)[C@@]1(C)[C@H](C)C[C@H]2[C@@H]3CCC4=CC(=O)C=C[C@]4(C)[C@H]3[C@@H](O)C[C@@]21C [Rimexolone],27.1%
8,CN(N=O)C(=O)N[C@@H](C=O)[C@@H](O)[C@H](O)[C@H](O)CO [Streptozotocin],103%
9,CCn1cc(C(=O)O)c(=O)c2cc(F)c(N3CCN(C)CC3)cc21 [Pefloxacine],105%
10,CC[C@]12CCCN3CCc4c(n(c5ccccc45)C(=O)C1)[C@@H]32 [Eburnamonine (-)],21.8%
11,C[C@@H]1CN(c2c(F)c(N)c3c(=O)c(C(=O)O)cn(C4CC4)c3c2F)C[C@H](C)N1 [Sparfloxacin],95.5%
12,C[C@]12C=CC(=O)C=C1CC[C@@H]1[C@@H]2C(=O)C[C@@]2(C)[C@H]1CC[C@]2(O)C(=O)CO [Prednisone],99.1%
13,CCn1cc(C(=O)O)c(=O)c2cc(F)c(N3CCNC(C)C3)c(F)c21 (stereo not given) [Lomefloxacin hydrochloride],107%
14,CS(=O)(=O)Nc1ccc([N+](=O)[O-])cc1Oc1ccccc1 [Nimesulide],101%
15,COc1cc(C)nc(-n2nc(C)cc2OC)n1 [Epirizole],95.7%
16,CNC(=C[N+](=O)[O-])NCCSCc1csc(CN(C)C)n1 [Nizatidine],96.6%
17,CCn1cc(C(=O)O)c(=O)c2cnc(N3CCNCC3)nc21 [Pipemidic acid],104%
18,COc1cc2nc(N3CCN(C(=O)c4ccco4)CC3)nc(N)c2cc1OC [Prazosin hydrochloride],25.5%
19,COc1nc(C)nc(Cl)c1NC1=NCCN1 [Moxonidine],106%
20,CC(=O)N[C@@H](CC(=O)N[C@@H](CCC(=O)O)C(=O)O)C(=O)O [Spaglumic acid],102%
21,Cc1ccc(S(=O)(=O)NC(=O)NN2CC3CCCC3C2)cc1 (stereo not given) [Gliclazide],120%
22,C#CCN(C)Cc1ccccc1 [Pargyline hydrochloride],105%
23,CCn1cc(C(=O)O)c(=O)c2ccc(C)nc21 [Nalidixic acid sodium salt],99.3%
24,COc1ccc2cc(CCC(C)=O)ccc2c1 [Nabumetone],101%
25,O=C(CCCN1CC=C(n2c(=O)[nH]c3ccccc32)CC1)c1ccc(F)cc1 [Droperidol],91%

row,Compound,HCT116-GFP viability
1,CCN(CC)CCNC(=O)c1cc(S(C)(=O)=O)ccc1OC [Tiapride hydrochloride],87.4%
2,CN1C2CCCC1CC(NC(=O)c1nn(C)c3ccccc13)C2 (stereo not given) [Granisetron],91.5%
3,CC(C)N1CCN(c2ccc(OCC3COC(Cn4cncn4)(c4ccc(Cl)cc4Cl)O3)cc2)CC1 (stereo not given) [Terconazole],75.4%
4,CN(C)CCOC1=Cc2ccccc2Sc2ccc(Cl)cc21 [Zotepine],59.6%
5,CCN(Cc1ccncc1)C(=O)C(CO)c1ccccc1 (stereo not given) [Tropicamide],90.3%
6,O=C(NCCNCC(O)COc1ccc(O)cc1)N1CCOCC1 (stereo not given) [Xamoterol hemifumarate],90.4%
7,OC(CCN1CCCCC1)(c1ccccc1)C1CC2C=CC1C2 (stereo not given) [Biperiden hydrochloride],102%
8,Cc1ncc([N+](=O)[O-])n1CCO [Metronidazole],107%
9,CCN(CC)CC#CCOC(=O)C(O)(c1ccccc1)C1CCCCC1 (stereo not given) [Oxybutynin chloride],106%
10,COc1ccc(C(=O)NCc2cccnc2)cc1C(=O)NCc1cccnc1 [Picotamide monohydrate],95.7%
11,COc1ccc2[nH]cc(CCNC(C)=O)c2c1 [Melatonin],101%
12,Cc1ccc(C(=O)c2cc(O)c(O)c([N+](=O)[O-])c2)cc1 [Tolcapone],91.7%
13,NC[C@H]1O[C@H](O[C@H]2[C@H](O[C@@H]3O[C@H](CO)[C@@H](O)[C@H]3O)[C@@H](O)[C@H](N)C[C@@H]2N)[C@H](N)[C@@H](O)[C@@H]1O [Ribostamycin sulfate salt],110%
14,CN1CCCCC1CCN1c2ccccc2Sc2ccc([S+](C)[O-])cc21 (stereo not given) [Mesoridazine besylate],94.9%
15,NC(=O)N/N=C/c1ccc([N+](=O)[O-])o1 [Nitrofural],81.8%
16,CCCC(=O)Nc1ncnc2c1ncn2[C@@H]1O[C@@H]2COP(=O)(O)O[C@H]2[C@H]1OC(=O)CCC [Bucladesine sodium salt],88.2%
17,CN(C)CCC[C@@]1(c2ccc(F)cc2)OCc2cc(C#N)ccc21 [Escitalopram oxalate],95%
18,CN1CCCC(n2nc(Cc3ccc(Cl)cc3)c3ccccc3c2=O)CC1 (stereo not given) [Azelastine hydrochloride],78.5%
19,CCN1CCN(C(=O)N[C@@H](C(=O)N[C@@H]2C(=O)N3[C@@H]2SC(C)(C)[C@@H]3C(=O)O)c2ccccc2)C(=O)C1=O [Piperacillin sodium salt],99.4%
20,CO[C@@H]1[C@@H](OC(N)=O)[C@@H](O)[C@H](Oc2ccc3c(O)c(NC(=O)c4ccc(O)c(CC=C(C)C)c4)c(=O)oc3c2C)OC1(C)C [Novobiocin sodium salt],97.1%
21,N=C(N)NCC1COC2(CCCCC2)O1 (stereo not given) [Guanadrel sulfate],103%
22,CC1(C)OC(=O)NC1=O [Dimethadione],96.7%
23,Nc1ccc(C(=O)NCC(=O)O)cc1 [Aminohippuric acid],108%
24,COc1ccc(NS(=O)(=O)c2ccc(N)cc2)nn1 [Sulfamethoxypyridazine],99.5%
25,CCC[C@H](N[C@@H](C)C(=O)N1[C@H](C(=O)O)C[C@@H]2CCCC[C@@H]21)C(=O)OCC [Perindopril],86.5%

row,Compound,HCT116-GFP viability
1,OCCN1CCN(CCCN2c3ccccc3Sc3ccc(Cl)cc32)CC1 [Perphenazine],46.6%
2,CN(C)CCc1c[nH]c2ccc(Cn3cncn3)cc12 [Rizatriptan benzoate],91.9%
3,OC[C@H]1O[C@@H](Oc2ccc(O)cc2)[C@H](O)[C@@H](O)[C@@H]1O [Arbutin],101%
4,Nc1ccc(S(=O)(=O)c2ccc(N)cc2)cc1 [Dapsone],102%
5,C=C1C[C@H]2[C@@H]3C=C(C)C4=CC(=O)CC[C@]4(C)[C@H]3CC[C@]2(C)[C@@]1(OC(C)=O)C(C)=O [Melengestrol acetate],101%
6,CC(=O)Oc1cccc2c1C(=O)c1c(OC(C)=O)cc(C(=O)O)cc1C2=O [Diacerein],122%
7,CCCNC(C)C(=O)Nc1ccccc1C (stereo not given) [Prilocaine hydrochloride],94.5%
8,COc1ccc(CN(CCN(C)C)c2ccccn2)cc1 [Pyrilamine maleate],102%
9,CC(COc1ccccc1)N(CCCl)Cc1ccccc1 (stereo not given) [Phenoxybenzamine hydrochloride],82.3%
10,CCCCC[C@H](O)/C=C/[C@@H]1[C@@H](C/C=C\CCCC(=O)O)[C@@H](O)C[C@H]1O [Dinoprost trometamol],101%
11,CC(=O)c1ccc(S(=O)(=O)NC(=O)NC2CCCCC2)cc1 [Acetohexamide],90.5%
12,CCCN[C@H]1CCc2nc(N)sc2C1 [Pramipexole dihydrochloride],83.6%
13,CCOC(=O)c1ccc(OC(=O)CCCCCNC(=N)N)cc1 [Gabexate mesilate],109%
14,Cc1cc(=O)oc2cc(O)ccc12 [Hymecromone],85.1%
15,Cn1c(=O)c2nc[nH]c2n(C)c1=O [Theophylline monohydrate],102%
16,C=C1c2cccc(O)c2C(=O)C2=C(O)[C@]3(O)C(=O)C(C(N)=O)=C(O)[C@@H](N(C)C)[C@@H]3[C@@H](O)[C@H]12 [Methacycline hydrochloride],84.5%
17,c1ccc(C2CN3CCSC3=N2)cc1 (stereo not given) [Tetramisole hydrochloride],97.5%
18,Cc1scc2c1N(C(=O)CN1CCN(C)CC1)c1ccccc1NC2=O [Telenzepine dihydrochloride],92.1%
19,NCCCC[C@H](N[C@@H](CCc1ccccc1)C(=O)O)C(=O)N1CCC[C@H]1C(=O)O [Lisinopril],97.8%
20,O=C(Nc1cccc2c(=O)cc(-c3nnn[nH]3)oc12)c1ccc(OCCCCc2ccccc2)cc1 [Pranlukast],91.9%
21,CC(C)(C)NC[C@H](O)COc1nsnc1N1CCOCC1 [Timolol maleate salt],96.5%
22,CCOC(=O)[C@H](CCc1ccccc1)N[C@H]1CCc2ccccc2N(CC(=O)O)C1=O [Benazepril hydrochloride],102%
23,COC1=C(OC)C(=O)C(CCCCCCCCCCO)=C(C)C1=O [Idebenone],75.2%
24,CCOC(=O)OC(C)OC(=O)[C@@H]1N2C(=O)[C@@H](NC(=O)[C@H](N)c3ccccc3)[C@H]2SC1(C)C (stereo not given in full) [Bacampicillin hydrochloride],100%
25,CC[C@H]1OC(=O)[C@H](C)[C@@H](O[C@H]2C[C@@](C)(OC)[C@@H](O)[C@H](C)O2)[C@H](C)[C@@H](O[C@@H]2O[C@H](C)C[C@H](N(C)C)[C@H]2O)[C@](C)(O)C[C@@H](C)/C(=N\OCOCCOC)[C@H](C)[C@@H](O)[C@]1(C)O [Roxithromycin],92.1%
